In the supplement of paper PMC4967469:
IC50 is the fitted dose that halves viability relative to control wells, and lower means more sensitive; a limit (>, <) means that the fit lies beyond the doses tested. The AUC spans the tested range (256-fold, ending at the top dose) of the same fit; the more sensitive the line, the further below 1. For part of these data: The top dose, if marked as inferred, is not printed in the source and was worked back from the curve model. For part of these data: Drugs with an entry number were screened twice under separate entries, and the two screens often disagree.

Tests used:
Assay in all cases: Viability of human cancer cell lines after 72 h of drug (GDSC screen)
CUDC-101 = compound: C#Cc1cccc(Nc2ncnc3cc(OC)c(OCCCCCCC(=O)NO)cc23)c1 [CUDC-101]; details: top dose 5.12 µM; top dose inferred
Protocol: (§1)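 Human cancer cell lines in 384-well plates, medium with 10% serum, drug for 72 h over a 256-fold dose range (nine 2-fold or five 4-fold steps up to the top dose). Adherent lines were fixed and stained with the nucleic acid dye Syto60, suspension lines read with resazurin; signal relative to control wells, capped at 0 and 100%. One two-parameter sigmoid per drug and line, fitted in a mixed model over all curves with the slope shared within a line.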

JNK-9L = compound: Fc1cc(-c2ccnc(Nc3ccc(-n4cnc(N5CCOCC5)n4)cc3)n2)cc(N2CCOCC2)c1 [JNK-9L]; details: top dose 5.12 µM; top dose inferred
Protocol: as §1

QS11 = compound: OC[C@H](Cc1ccccc1)Nc1nc(Oc2ccc3c(c2)CCC3)nc2c1ncn2Cc1ccc(-c2ccccc2)cc1 [QS11]; details: top dose 10.24 µM
Protocol: as §1

RDEA119 = compound: COc1cc(F)c(F)c(Nc2ccc(I)cc2F)c1NS(=O)(=O)C1(C[C@H](O)CO)CC1 [RDEA119]; details: top dose 5 µM, top dose inferred
Protocol: as §1

OSU-03012 = compound: NCC(=O)Nc1ccc(-n2nc(C(F)(F)F)cc2-c2ccc3c(ccc4ccccc43)c2)cc1 [OSU-03012]; details: top dose 16 µM; top dose inferred
Protocol: as §1

AC220 = compound: CC(C)(C)c1cc(NC(=O)Nc2ccc(-c3cn4c(n3)sc3cc(OCCN5CCOCC5)ccc34)cc2)no1 [AC220]; details: top dose 1.024 µM; top dose inferred
Protocol: as §1

Cell Line | AUC (CUDC-101) | IC50 (CUDC-101) | AUC (JNK-9L) | IC50 (JNK-9L) | AUC (QS11) | IC50 (QS11) | AUC (RDEA119; screen: GDSC drug entry 1014) | IC50 (RDEA119; screen: GDSC drug entry 1014) | AUC (RDEA119; screen: GDSC drug entry 1526) | IC50 (RDEA119; screen: GDSC drug entry 1526) | AUC (OSU-03012) | IC50 (OSU-03012) | AUC (AC220) | IC50 (AC220)
A375 (melanoma, adherent) | 0.59 | 0.538 µM | 0.546 | 0.416 µM | 0.857 | 6.09 µM | 0.297 | 0.0948 µM | 0.294 | 0.0929 µM | 0.644 | 2.31 µM | – | –
A549 (lung adenocarcinoma, adherent) | – | – | – | – | – | – | 0.432 | 0.199 µM | 0.547 | 0.426 µM | – | – | – | –
AsPC-1 (pancreas, adherent) | 0.71 | 1.94 µM | 0.803 | > 5.12 µM | 0.971 | > 10.2 µM | 0.646 | 1.05 µM | 0.534 | 0.414 µM | – | – | 0.955 | > 1.02 µM
BALL-1 (B-cell leukaemia, suspension) | – | – | – | – | – | – | 0.997 | > 5 µM | 0.991 | > 5 µM | – | – | – | –
BT-549 (breast, adherent) | – | – | – | – | – | – | 0.9 | > 5 µM | 0.92 | > 5 µM | – | – | – | –
CCRF-CEM (lymphoblastic leukaemia, suspension) | 0.244 | 0.0682 µM | 0.526 | 0.371 µM | 0.801 | 4.09 µM | 0.958 | > 5 µM | 0.958 | > 5 µM | – | – | 0.985 | > 1.02 µM
CL-34 (large intestine, adherent) | – | – | – | – | – | – | 0.51 | 0.333 µM | 0.425 | 0.19 µM | – | – | – | –
CL-40 (large intestine, adherent) | – | – | – | – | – | – | 0.631 | 0.921 µM | 0.644 | 1.03 µM | – | – | – | –
CML-T1 (chronic myeloid leukaemia, suspension) | – | – | – | – | – | – | 0.837 | 2.57 µM | 0.939 | > 5 µM | – | – | – | –
COR-L32 (small cell lung carcinoma, suspension) | – | – | – | – | – | – | – | – | 0.953 | > 5 µM | – | – | – | –
COR-L311 (small cell lung carcinoma, suspension) | – | – | – | – | – | – | – | – | – | – | – | – | 0.904 | > 1.02 µM
CRO-AP2 (B-cell lymphoma, suspension) | – | – | – | – | – | – | 0.967 | > 5 µM | 0.971 | > 5 µM | – | – | – | –
DIFI (large intestine, adherent) | – | – | – | – | – | – | 0.679 | 1.01 µM | 0.681 | 1.03 µM | – | – | – | –
DOHH-2 (B-cell lymphoma, suspension) | – | – | 0.569 | 0.491 µM | 0.87 | 9.19 µM | 0.986 | > 5 µM | – | – | 0.728 | 4.38 µM | – | –
ECC12 (stomach, suspension) | – | – | 0.497 | 0.314 µM | – | – | – | – | – | – | – | – | – | –
EHEB (lymphoid neoplasm, suspension) | – | – | 0.549 | 0.464 µM | 0.979 | > 10.2 µM | 0.899 | > 5 µM | 0.973 | > 5 µM | 0.76 | 8.25 µM | – | –
EW-22 (Ewing sarcoma, adherent) | – | – | – | – | – | – | 0.958 | > 5 µM | 0.958 | > 5 µM | – | – | – | –
FLO-1 (oesophagus, adherent) | 0.552 | 0.471 µM | – | – | – | – | 0.763 | 2.61 µM | 0.783 | 3.18 µM | – | – | 0.966 | > 1.02 µM
GA-10 (Burkitt lymphoma, suspension) | – | – | 0.349 | 0.132 µM | – | – | 0.958 | > 5 µM | 0.972 | > 5 µM | – | – | – | –
HCC-366 (non-small cell lung carcinoma, adherent) | – | – | – | – | – | – | 0.956 | > 5 µM | 0.945 | > 5 µM | – | – | – | –
HCC-827 (lung adenocarcinoma, adherent) | – | – | 0.588 | 0.578 µM | 0.978 | > 10.2 µM | 0.958 | > 5 µM | 0.944 | > 5 µM | 0.866 | > 16 µM | – | –
HCT-15 (large intestine, adherent) | 0.91 | > 5.12 µM | 0.502 | 0.325 µM | 0.686 | 2.2 µM | 0.721 | 1.38 µM | – | – | – | – | 0.979 | > 1.02 µM
HT-29 (large intestine, adherent) | 0.561 | 0.468 µM | 0.523 | 0.37 µM | 0.868 | 9.26 µM | 0.332 | 0.107 µM | 0.469 | 0.257 µM | – | – | 0.986 | > 1.02 µM
IGROV-1 (ovary, adherent) | – | – | – | – | – | – | 0.705 | 1.57 µM | 0.845 | > 5 µM | – | – | – | –
IM-9 (myeloma, suspension) | – | – | 0.847 | 3.01 µM | 0.9 | 9.98 µM | 0.912 | > 5 µM | 0.782 | 1.8 µM | 0.726 | 3.92 µM | – | –
JEKO-1 (B-cell lymphoma, suspension) | – | – | – | – | – | – | 0.953 | > 5 µM | 0.976 | > 5 µM | – | – | – | –
JHOS-4 (ovary, adherent) | – | – | – | – | – | – | 0.876 | > 5 µM | – | – | – | – | – | –
JHU-029 (head and neck, adherent) | – | – | 0.533 | 0.401 µM | 0.928 | > 10.2 µM | 0.653 | 0.919 µM | 0.616 | 0.701 µM | 0.614 | 2.22 µM | – | –
Jurkat (T-cell leukaemia, suspension) | – | – | – | – | – | – | 0.99 | > 5 µM | 0.992 | > 5 µM | – | – | – | –
